Laboratory results published in article PMC9911399, “Two distinct binding modes provide the RNA-binding protein RbFox with extraordinary sequence specificity”.
Numbering of substitutions follows the chain as printed; changes in the protein carry UniProt numbers. The list shows a part of the results.

T1: RBFOX1 RRM (Homo sapiens, UniProt Q9NWB1 109-208)
T1 sequence: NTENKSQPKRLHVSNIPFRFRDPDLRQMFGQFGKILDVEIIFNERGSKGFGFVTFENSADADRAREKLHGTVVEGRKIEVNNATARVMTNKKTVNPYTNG

B1: ACAUCCU (DNA:RNA)
RNA: GGGAGACCGGAAUUCAGAUUGUCCACAUCCUUUAAAUCCCGUCGUAGCCACCA
DNA 1: CAATCTGAATTCCGGTCTCCC
DNA 2: TGGTGGCTACGACGGGATT
B2: AACGGUC (DNA:RNA)
RNA: B1 RNA with C26A, A27C, U28G, C29G, C30U, U31C
DNA 1: CAATCTGAATTCCGGTCTCCC
DNA 2: TGGTGGCTACGACGGGATT
B3: UGACUCC (DNA:RNA)
RNA: B1 RNA with A25U, C26G, U28C, C29U, U31C
DNA 1: CAATCTGAATTCCGGTCTCCC
DNA 2: TGGTGGCTACGACGGGATT
B4: CUCUAAC (DNA:RNA)
RNA: B1 RNA with A25C, C26U, A27C, C29A, C30A, U31C
DNA 1: CAATCTGAATTCCGGTCTCCC
DNA 2: TGGTGGCTACGACGGGATT
B5: UGCGUUA (DNA:RNA)
RNA: GGGAGACCGGAAUUCAGAUUGUCCUGCGUUAUUAAAUCCCGUCGUAGCCACCA
DNA 1: CAATCTGAATTCCGGTCTCCC
DNA 2: TGGTGGCTACGACGGGATT
B6: UUUCACG (DNA:RNA)
RNA: B1 RNA with A25U, C26U, A27U, U28C, C29A, U31G
DNA 1: CAATCTGAATTCCGGTCTCCC
DNA 2: TGGTGGCTACGACGGGATT
B7: UACCCGU (DNA:RNA)
RNA: B1 RNA with A25U, C26A, A27C, U28C, C30G
DNA 1: CAATCTGAATTCCGGTCTCCC
DNA 2: TGGTGGCTACGACGGGATT
B8: AUAUUGC (DNA:RNA)
RNA: B1 RNA with C26U, C29U, C30G, U31C
DNA 1: CAATCTGAATTCCGGTCTCCC
DNA 2: TGGTGGCTACGACGGGATT
B9: AUCUAGU (DNA:RNA)
RNA: B1 RNA with C26U, A27C, C29A, C30G
DNA 1: CAATCTGAATTCCGGTCTCCC
DNA 2: TGGTGGCTACGACGGGATT
B10: CCCAGAG (DNA:RNA)
RNA: B1 RNA with A25C, A27C, U28A, C29G, C30A, U31G
DNA 1: CAATCTGAATTCCGGTCTCCC
DNA 2: TGGTGGCTACGACGGGATT
B11: GGUUAUC (DNA:RNA)
RNA: B5 RNA with U25G, C27U, G28U, U29A, A31C
DNA 1: CAATCTGAATTCCGGTCTCCC
DNA 2: TGGTGGCTACGACGGGATT
B12: GCAGCUU (DNA:RNA)
RNA: B1 RNA with A25G, U28G, C30U
DNA 1: CAATCTGAATTCCGGTCTCCC
DNA 2: TGGTGGCTACGACGGGATT
B13: GUGUAGU (DNA:RNA)
RNA: B1 RNA with A25G, C26U, A27G, C29A, C30G
DNA 1: CAATCTGAATTCCGGTCTCCC
DNA 2: TGGTGGCTACGACGGGATT
B14: AACCUAU (DNA:RNA)
RNA: B1 RNA with C26A, A27C, U28C, C29U, C30A
DNA 1: CAATCTGAATTCCGGTCTCCC
DNA 2: TGGTGGCTACGACGGGATT
B15: ACCCUCU (DNA:RNA)
RNA: B1 RNA with A27C, U28C, C29U
DNA 1: CAATCTGAATTCCGGTCTCCC
DNA 2: TGGTGGCTACGACGGGATT
B16: UGCAUAU (DNA:RNA)
RNA: B5 RNA with G28A, U30A, A31U
DNA 1: CAATCTGAATTCCGGTCTCCC
DNA 2: TGGTGGCTACGACGGGATT
B17: UGGUAUA (DNA:RNA)
RNA: B5 RNA with C27G, G28U, U29A
DNA 1: CAATCTGAATTCCGGTCTCCC
DNA 2: TGGTGGCTACGACGGGATT
B18: UAACAGC (DNA:RNA)
RNA: B1 RNA with A25U, C26A, U28C, C29A, C30G, U31C
DNA 1: CAATCTGAATTCCGGTCTCCC
DNA 2: TGGTGGCTACGACGGGATT
B19: GGUGUUA (DNA:RNA)
RNA: B5 RNA with U25G, C27U
DNA 1: CAATCTGAATTCCGGTCTCCC
DNA 2: TGGTGGCTACGACGGGATT
B20: ACGCGAA (DNA:RNA)
RNA: B1 RNA with A27G, U28C, C29G, C30A, U31A
DNA 1: CAATCTGAATTCCGGTCTCCC
DNA 2: TGGTGGCTACGACGGGATT
B21: UAGAAGA (DNA:RNA)
RNA: B5 RNA with G26A, C27G, G28A, U29A, U30G
DNA 1: CAATCTGAATTCCGGTCTCCC
DNA 2: TGGTGGCTACGACGGGATT
B22: GUACAUU (DNA:RNA)
RNA: B1 RNA with A25G, C26U, U28C, C29A, C30U
DNA 1: CAATCTGAATTCCGGTCTCCC
DNA 2: TGGTGGCTACGACGGGATT
B23: CCGAAUC (DNA:RNA)
RNA: B1 RNA with A25C, A27G, U28A, C29A, C30U, U31C
DNA 1: CAATCTGAATTCCGGTCTCCC
DNA 2: TGGTGGCTACGACGGGATT
B24: AGUGCUA (DNA:RNA)
RNA: B5 RNA with U25A, C27U, U29C
DNA 1: CAATCTGAATTCCGGTCTCCC
DNA 2: TGGTGGCTACGACGGGATT
B25: GGACUUU (DNA:RNA)
RNA: B5 RNA with U25G, C27A, G28C, A31U
DNA 1: CAATCTGAATTCCGGTCTCCC
DNA 2: TGGTGGCTACGACGGGATT
B26: GACACGG (DNA:RNA)
RNA: B1 RNA with A25G, C26A, A27C, U28A, C30G, U31G
DNA 1: CAATCTGAATTCCGGTCTCCC
DNA 2: TGGTGGCTACGACGGGATT
B27: AGACUUC (DNA:RNA)
RNA: B5 RNA with U25A, C27A, G28C, A31C
DNA 1: CAATCTGAATTCCGGTCTCCC
DNA 2: TGGTGGCTACGACGGGATT
B28: GUGCGGC (DNA:RNA)
RNA: GGGAGACCGGAAUUCAGAUUGUCCGUGCGGCUUAAAUCCCGUCGUAGCCACCA
DNA 1: CAATCTGAATTCCGGTCTCCC
DNA 2: TGGTGGCTACGACGGGATT
B29: UCAUUUU (DNA:RNA)
RNA: B1 RNA with A25U, C29U, C30U
DNA 1: CAATCTGAATTCCGGTCTCCC
DNA 2: TGGTGGCTACGACGGGATT
B30: UCGAAGC (DNA:RNA)
RNA: B28 RNA with G25U, U26C, C28A, G29A
DNA 1: CAATCTGAATTCCGGTCTCCC
DNA 2: TGGTGGCTACGACGGGATT
B31: CCACUCC (DNA:RNA)
RNA: B1 RNA with A25C, U28C, C29U, U31C
DNA 1: CAATCTGAATTCCGGTCTCCC
DNA 2: TGGTGGCTACGACGGGATT

These binders were tested against T1, RBFOX1 RRM (assay: EMSA; HiTS-Eq, 1 nM pool, 10 min; buffer printed only for the single-RNA assays: 10 mM Tris pH 7.5, 150 mM NaCl, 3.4 mM EDTA, 0.001% NP-40, 30 C). Settings: tags: His6 N-terminal (pET28a); label: 5' 32P.
Procedure, shortened: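 Purified wild-type or mutant RbFox RRM at increasing concentrations was equilibrated with 1 nM of 5′-radiolabelled RNA carrying 7 randomized nucleotides for 10 min in 50 µL. Unbound RNA was separated by 8% native PAGE and sequenced. Relative association constants came from read-count changes of each RNA species compared with the control reaction, normalised to the cognate motif.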

Row | Binder | binding signal
1 | B1 | 0.00291 KA relative to UGCAUGU
2 | B2 | 0.0046 KA relative to UGCAUGU
3 | B3 | 0.0112 KA relative to UGCAUGU
4 | B4 | 0.00191 KA relative to UGCAUGU
5 | B5 | 0.0175 KA relative to UGCAUGU
6 | B6 | 0.0119 KA relative to UGCAUGU
7 | B7 | 0.004 KA relative to UGCAUGU
8 | B8 | 0.00731 KA relative to UGCAUGU
9 | B9 | 0.00514 KA relative to UGCAUGU
10 | B10 | 0.0137 KA relative to UGCAUGU
11 | B11 | 0.00774 KA relative to UGCAUGU
12 | B12 | 0.013 KA relative to UGCAUGU
13 | B13 | 0.0123 KA relative to UGCAUGU
14 | B14 | 0.000214 KA relative to UGCAUGU
15 | B15 | 0.00404 KA relative to UGCAUGU
16 | B16 | 0.0115 KA relative to UGCAUGU

Row | Binder | binding signal
17 | B17 | 0.0103 KA relative to UGCAUGU
18 | B18 | 0.00375 KA relative to UGCAUGU
19 | B19 | 0.0131 KA relative to UGCAUGU
20 | B20 | 0.00567 KA relative to UGCAUGU
21 | B21 | 0.00721 KA relative to UGCAUGU
22 | B22 | 0.00424 KA relative to UGCAUGU
23 | B23 | 0.00768 KA relative to UGCAUGU
24 | B24 | 0.00977 KA relative to UGCAUGU
25 | B25 | 0.0238 KA relative to UGCAUGU
26 | B26 | 0.0123 KA relative to UGCAUGU
27 | B27 | 0.00804 KA relative to UGCAUGU
28 | B28 | 0.0141 KA relative to UGCAUGU
29 | B29 | 0.00619 KA relative to UGCAUGU
30 | B30 | 0.0119 KA relative to UGCAUGU
31 | B31 | 0.0026 KA relative to UGCAUGU
